Reference: the antibiotic and cytotoxicity screens of Wong et al. (2023)
The list shows a part of the results.

How the values were obtained:
HSkMC = human skeletal muscle cells; test: cytotoxicity call (relative viability < 0.9); conditions: 10 µM
HepG2 = test: cytotoxicity call (relative viability < 0.9); conditions: 10 µM
S. aureus RN4220 = test: growth inhibition call (relative growth <= 0.2); conditions: 50 µM

O=S(=O)([O-])CCCS(=O)(=O)[O-].[Na+].[Na+]
inactive: cytotoxicity call (HSkMC) | cytotoxicity call (HepG2) | growth inhibition call (S. aureus RN4220)

COc1ccc(S(=O)(=O)N(C)C[C@H]2Oc3ccc(NS(=O)(=O)c4ccc(C)cc4)cc3CC(=O)N([C@@H](C)CO)C[C@@H]2C)cc1
inactive: cytotoxicity call (HSkMC) | cytotoxicity call (HepG2) | growth inhibition call (S. aureus RN4220)

COCCNC(=O)C[C@@H]1C[C@@H]2c3cc(NC(=O)CN(C)C)ccc3O[C@@H]2[C@H](CO)O1
inactive: cytotoxicity call (HSkMC) | cytotoxicity call (HepG2) | growth inhibition call (S. aureus RN4220)

C[C@@H]1CCCCO[C@H](CN(C)S(=O)(=O)c2cccs2)[C@@H](C)CN([C@@H](C)CO)C(=O)c2cc(NC(=O)c3ccccc3)ccc2O1
inactive: cytotoxicity call (HSkMC) | cytotoxicity call (HepG2) | growth inhibition call (S. aureus RN4220)

C[C@@H]1CN([C@@H](C)CO)C(=O)c2cc(NC(=O)Cn3cnnn3)ccc2O[C@@H]1CN(C)C(=O)Nc1ccc(C(F)(F)F)cc1
inactive: cytotoxicity call (HSkMC) | cytotoxicity call (HepG2) | growth inhibition call (S. aureus RN4220)

C[C@@H]1CCCCO[C@@H](CN(C)C(=O)CCCN(C)C)[C@@H](C)CN([C@H](C)CO)C(=O)c2cc(NC(=O)Nc3ccc(F)cc3)ccc2O1
inactive: cytotoxicity call (HSkMC) | cytotoxicity call (HepG2) | growth inhibition call (S. aureus RN4220)

Cc1noc(C)c1NC(=O)N(C)C[C@@H]1OCCCC[C@H](C)Oc2ccc(NC(=O)NC3CCCCC3)cc2C(=O)N([C@H](C)CO)C[C@@H]1C
inactive: cytotoxicity call (HSkMC) | cytotoxicity call (HepG2) | growth inhibition call (S. aureus RN4220)

C[C@@H]1CN([C@@H](C)CO)C(=O)c2cc(NC(=O)c3ccccc3)ccc2O[C@@H](C)CCCCO[C@H]1CN(C)S(=O)(=O)c1ccccc1
inactive: cytotoxicity call (HSkMC) | cytotoxicity call (HepG2) | growth inhibition call (S. aureus RN4220)

C[C@@H]1CN([C@@H](C)CO)C(=O)c2cc(NC(=O)CCC(F)(F)F)ccc2O[C@@H](C)CCCCO[C@@H]1CN(C)C(=O)CCC(F)(F)F
inactive: cytotoxicity call (HSkMC) | cytotoxicity call (HepG2) | growth inhibition call (S. aureus RN4220)

CC(=O)Nc1ccc(O)cc1
inactive: cytotoxicity call (HSkMC) | cytotoxicity call (HepG2) | growth inhibition call (S. aureus RN4220)

C[C@@H]1CCCCO[C@H](CN(C)S(=O)(=O)c2cccs2)[C@H](C)CN([C@@H](C)CO)C(=O)c2cc(NC(=O)Nc3ccc(F)cc3)ccc2O1
inactive: cytotoxicity call (HSkMC) | cytotoxicity call (HepG2) | growth inhibition call (S. aureus RN4220)

COCC#Cc1ccc2c(c1)O[C@H](CN(C)C(=O)COC)[C@H](C)CN([C@@H](C)CO)S2(=O)=O
inactive: cytotoxicity call (HSkMC) | cytotoxicity call (HepG2) | growth inhibition call (S. aureus RN4220)

C[C@H]1CN([C@@H](C)CO)C(=O)c2cccc(NS(C)(=O)=O)c2O[C@@H]1CN(C)Cc1ccc2c(c1)OCO2
inactive: cytotoxicity call (HSkMC) | cytotoxicity call (HepG2) | growth inhibition call (S. aureus RN4220)

COc1ccc(S(=O)(=O)N(C)C[C@H]2Oc3ccc(NS(=O)(=O)c4ccc(C)cc4)cc3CC(=O)N([C@@H](C)CO)C[C@H]2C)cc1
inactive: cytotoxicity call (HSkMC) | cytotoxicity call (HepG2) | growth inhibition call (S. aureus RN4220)

O=C(NCC[C@@H]1CC[C@@H](NS(=O)(=O)c2cccc(F)c2)[C@H](CO)O1)C1CC1
inactive: cytotoxicity call (HSkMC) | cytotoxicity call (HepG2) | growth inhibition call (S. aureus RN4220)

OC[C@H]1O[C@H](Nc2ccccc2)C[C@@H]1O
inactive: cytotoxicity call (HSkMC) | cytotoxicity call (HepG2) | growth inhibition call (S. aureus RN4220)

C[C@@H]1CN([C@@H](C)CO)S(=O)(=O)c2ccc(-c3ccccc3F)cc2O[C@H]1CN(C)Cc1cncnc1
inactive: cytotoxicity call (HSkMC) | cytotoxicity call (HepG2) | growth inhibition call (S. aureus RN4220)

CC[N+](C)(CC)Cc1ccccc1
inactive: cytotoxicity call (HSkMC) | cytotoxicity call (HepG2) | growth inhibition call (S. aureus RN4220)

CC(C)NC(=O)N1Cc2cc(C(=O)NCC(F)(F)F)nc(-c3cccc(-c4cc5ccccc5o4)c3)c2[C@@H]1CCO
inactive: cytotoxicity call (HSkMC) | cytotoxicity call (HepG2) | growth inhibition call (S. aureus RN4220)

C[C@@H]1CN([C@H](C)CO)C(=O)c2cccc(NS(C)(=O)=O)c2O[C@@H]1CN(C)Cc1ccc(C(=O)O)cc1
inactive: cytotoxicity call (HSkMC) | cytotoxicity call (HepG2) | growth inhibition call (S. aureus RN4220)

CC(C)Cn1cnc2ccccc21
inactive: cytotoxicity call (HSkMC) | cytotoxicity call (HepG2) | growth inhibition call (S. aureus RN4220)

O=C(C[C@@H]1C[C@H]2c3cc(NC(=O)C4CCOCC4)ccc3O[C@H]2[C@@H](CO)O1)NCc1ccc2c(c1)OCO2
inactive: cytotoxicity call (HSkMC) | cytotoxicity call (HepG2) | growth inhibition call (S. aureus RN4220)

COc1ccc(NC(=O)Nc2ccc3c(c2)C(=O)N([C@@H](C)CO)C[C@H](C)[C@@H](CN(C)S(=O)(=O)c2c(C)noc2C)OCCCC[C@H](C)O3)cc1
inactive: cytotoxicity call (HSkMC) | cytotoxicity call (HepG2) | growth inhibition call (S. aureus RN4220)

Cc1ccc(S(=O)(=O)Nc2cccc3c2O[C@@H](CN(C)S(=O)(=O)c2cn(C)cn2)[C@@H](C)CN([C@@H](C)CO)C3=O)cc1
inactive: cytotoxicity call (HSkMC) | cytotoxicity call (HepG2) | growth inhibition call (S. aureus RN4220)

C[C@@H]1CN([C@@H](C)CO)C(=O)c2cccc(NS(=O)(=O)c3cccs3)c2O[C@H]1CN(C)Cc1ccc(Oc2ccccc2)cc1
inactive: cytotoxicity call (HSkMC) | cytotoxicity call (HepG2) | growth inhibition call (S. aureus RN4220)

C[C@@H]1CN([C@H](C)CO)C(=O)c2cc(NC(=O)Nc3ccc(F)cc3)ccc2O[C@H]1CN(C)S(C)(=O)=O
inactive: cytotoxicity call (HSkMC) | cytotoxicity call (HepG2) | growth inhibition call (S. aureus RN4220)
